The results in this text go back to ChEMBL document CHEMBL4888484, “Replenishing the malaria drug discovery pipeline: Screening and hit evaluation of the MMV Hit Generation Library 1 (HGL1) against asexual blood stage Plasmodium falciparum ,using a nano luciferase reporter read-out” (2022).

The campaign covered roughly 150,000 compounds. About 540 (0.36%) showed an effect of 50% or more. The list shows a part of the results.

The assay concerns Plasmodium falciparum. Briefly: Primary screen in NF54 nanoGlo assay, in single point, at 2uM, 72h; a lower Z score goes with more inhibition. Format: functional, Erythrocyte. Conditions: timepoint 72 hour.
`Cc1ncc(-c2cc(NC(C)C)ccc2C)o1`: the “% Inhibition” value was determined as 4% and the Z score is reported as -0.43.

As for `CNC(=O)c1cc(S(=O)(=O)N2CCC3C(CCC(=O)N3C3CC3)C2)cn1C` (centres undefined), the “% Inhibition” value is -11% and the Z score is recorded as 1.1.

With `O=C(c1ccccc1)N1C(F)(F)C1(C(F)(F)F)C(F)(F)F`, the “% Inhibition” value amounted to 1% and the Z score was -0.1.

On to `COc1ccc(Cl)cc1C(CC(C)C)NC(=O)C1CN(C)CCO1` (centres undefined), for which the “% Inhibition” value was 5% and the Z score is listed as -0.97.

Regarding `CCC1CCCCN1Cc1ccc(CNC(=O)C2CCCN(c3ncnc4c3nc3n4CCCCC3)C2)o1` (centres undefined), the “% Inhibition” value is recorded as -1% and the Z score was 0.24.

Regarding `Cc1nc(C2CN(c3ncnc4c3CCCC4)C2)n[nH]1`, the “% Inhibition” value was -5% and the Z score came to 0.97.

Turning to `O=C(NCc1ccc(S(=O)(=O)N2CCCC2)cc1)c1cc[nH]n1`, the “% Inhibition” value stood at 33% and the Z score is -4.84.

Take `O=C(c1ccccc1)N1CCCCCO1`: the “% Inhibition” value is 2% and the Z score is listed as -0.26.

`C[C@@H]1CC[C@H](CO)N1C(=O)Cn1nc(C(F)(F)F)c2c1CCOC2`: the “% Inhibition” value was 12% and the Z score is recorded as -2.26.

Take `O=c1[nH]c2ccccc2c2nc(-c3cccc(S(=O)(=O)N4CCCCC4)c3)nn12`: the “% Inhibition” value is reported as -7% and the Z score turned out to be 0.72.

As to `CC1CCC(N(C)C(=O)[C@@H]2CNCCN2C)CC1` (some centres undefined), the “% Inhibition” value is on record as -8% and the Z score is reported as 0.99.

As for `Cc1cnc([C@@H](NC2CCN(CC3CC3)CC2)C2CC2)s1`, the “% Inhibition” value was 1% and the Z score is given as -0.08.

In the case of `COc1ccccc1CC(=O)N1CCNC[C@H]1C(=O)N1CCOCC1`, the “% Inhibition” value is recorded as -2% and the Z score is recorded as 0.31.

Regarding `CC1CCN(C(=O)N2CCN3C(=O)NCC3C2)C1` (centres undefined), the “% Inhibition” value is on record as -18% and the Z score is on record as 2.19.

With `O=C(C1CCCCCC1)N1CC2CCC1C2` (centres undefined), the “% Inhibition” value stood at 1% and the Z score is on record as -0.17.

Regarding `CC(C)n1cc(C(=O)N[C@@H](C)CCc2cccn2C)nn1`, the “% Inhibition” value was -10% and the Z score came to 1.2.

On to `Cc1cccc(C(=O)NC(C)C(=O)N2CCC(N3CCCC3C(N)=O)CC2)c1` (centres undefined), for which the “% Inhibition” value is recorded as -5% and the Z score was 0.65.

With `O=S(=O)(Nc1cc(Br)c(F)cc1F)C1CC1`, the “% Inhibition” value was -5% and the Z score is given as 0.78.

As to `O=C(CCc1nc2ccccc2[nH]1)N1CCCCC[C@@H]1CO`, the “% Inhibition” value was 4% and the Z score was -0.51.

As to `OCCOc1nc(OCCO)nc(OCCO)n1`, the “% Inhibition” value is recorded as -34% and the Z score was 4.04.

In the case of `O=c1[nH]nc(CCNc2ccccc2)n1-c1ccc2c(c1)OCO2`, the “% Inhibition” value was -7% and the Z score amounted to 0.67.

`CCCCCNC(=O)c1n[nH]c2c1CN(C(=O)Cc1cccc(Cl)c1)CC2`: the “% Inhibition” value is given as -9% and the Z score worked out at 1.06.

For `COCCN(C)Cc1nc(-c2ccc(-c3ccccc3)cc2)oc1C`, the “% Inhibition” value worked out at 8% and the Z score is -1.08.

Turning to `Cc1cc(NCCN2CCC[C@H](CO)C2)nc(-c2ccccc2)n1`, the “% Inhibition” value is recorded as -9% and the Z score is 0.87.

For `CNc1nc(C(N)=O)c(NC(=O)c2ccc(OC)c(C)c2)s1`, the “% Inhibition” value is recorded as -3% and the Z score is given as 0.53.

As for `CC(C)N(CC(F)(F)F)C(=O)Cn1nccc1-c1ccncc1`, the “% Inhibition” value is listed as 1% and the Z score is on record as -0.15.

Take `c1ccc(Cn2ccnc2CN(CC2CC2)c2ccccc2)cc1`: the “% Inhibition” value turned out to be 9% and the Z score is on record as -1.28.

On to `O=C(CCc1cn[nH]c1)N1CCC[C@H](c2nnc3ccccn23)C1`, for which the “% Inhibition” value amounted to 4% and the Z score is -0.9.

On to `CCc1noc([C@]2(O)CCN(C(=O)N(C)CC(C)(C)C)C2)n1`, for which the “% Inhibition” value is listed as -3% and the Z score came to 0.51.

Take `CC1(C)N=C(c2ccccc2)C(=O)N1CC(=O)N1CCN(c2ccccc2)CC1`: the “% Inhibition” value is on record as -2% and the Z score came to 0.28.

Consider `CS(=O)(=O)N1CCN(C(=O)c2ccccc2O)Cc2ccccc21`, for which the “% Inhibition” value is -18% and the Z score turned out to be 2.19.

As for `CCCN(C(=O)c1ccc2[nH]nnc2c1)[C@@H](C)c1cc2ccccc2o1`, the “% Inhibition” value is -14% and the Z score is reported as 1.97.

`CCc1ccnc(C(=O)NC(C)(C)c2nc(C)no2)c1`: the “% Inhibition” value is on record as -9% and the Z score is 1.2.

For the compound `Cc1cc(C(=O)N2CCO[C@H](c3ccco3)C2)no1`, the “% Inhibition” value is -13% and the Z score is given as 1.52.

As to `CCN1C[C@@H](CN(C)Cc2nc(-c3ccc(OC)c(OC)c3OC)no2)CC1=O`, the “% Inhibition” value is given as -11% and the Z score was 1.29.

Regarding `Cc1noc(C)c1CN1CCC(CC2CC2)(C(N)=O)CC1`, the “% Inhibition” value is on record as 2% and the Z score was -0.24.

Take `COc1ccc(CCNC(=O)CN2C(=O)CCn3nc(-c4cccn4C)cc32)cc1OC`: the “% Inhibition” value is listed as -6% and the Z score is 1.08.

In the case of `COc1cccc(CC2(C(=O)N3CCOCC3)CC3CCC2C3)c1` (centres undefined), the “% Inhibition” value is recorded as -9% and the Z score turned out to be 1.2.

Turning to `CN(C)c1nc(NCC[C@H]2CCCCN2S(C)(=O)=O)ncc1F`, the “% Inhibition” value is 6% and the Z score was -0.86.

On to `O=C(N[C@H](c1cccnc1)C1CCOCC1)c1ccccn1`, for which the “% Inhibition” value was -4% and the Z score was found to be 0.81.

Turning to `CCC[C@H](C)N1CC2(CCN(C(=O)c3ccccn3)CC2)OC1=O`, the “% Inhibition” value is on record as -4% and the Z score is listed as 0.59.

`CN(Cc1nc2ccc(F)cc2[nH]1)Cc1cn(C)nc1-c1cccc(Cl)c1`: the “% Inhibition” value is given as 3% and the Z score is -0.69.

As a reminder, the % Inhibition is the relative decrease from the control value, in per cent.
